This note sets out measurements from PubChem BioAssay AID1508642 (National Center for Advancing Translational Sciences (NCATS), 2021).

The campaign covered roughly 43,000 compounds. About 200 (0.47%) were called active. Another 12% or so got no clear call; they are omitted. Calls come from the whole dose curve; as a rule, active = well fitted cell-killing curve with a large enough effect; inconclusive = small, poorly fitted or top-dose-only effect, or effect the other way; inactive = flat fitted curve, though single readings scatter. The list shows a part of the results.
% is set by controls: 0 for no effect and ±100 for the full control effect.

This assay can be described thus: Cell viability qHTS assay in S16 Pmp22-F2sN cells. Note: nearly all actives have a fitted effect of over 65% in size. As to conditions: S16 Pmp22-F2sN Schwann cells (luciferase reporters placed in the Pmp22 gene) viability, CellTiter-Glo, 24 h; series mostly up to 57.5 µM; activity change, negative = cytotoxicity: at the top concentration. The method, boiled down:
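CellTiter-Glo counter-screen, qHTS, 1536-well. Cells: S16(c9) Pmp22-F2sN, 500-1,000/well in DMEM + 10% FBS. Cpd 23 nL pin transfer, 24 h, 37C/5% CO2. Read: luminescence, CCD imager.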
In general terms: Quantitative high-throughput screening tests each substance at several concentrations.
For the compound `COCCCNC(=O)Cn1c(=O)n(-c2ccc(Cl)cc2)c(=O)c2c3c(sc21)CCCCC3`, the “activity change, negative = cytotoxicity” value was inactive: 2.81%.
Take `COc1ccc(CCNC(=O)CN2C(=O)COc3ccc(S(=O)(=O)N4CCCCCC4)cc32)cc1OC`: the “activity change, negative = cytotoxicity” value is inactive: 2.54%.
For `CCOC(=O)C1CCCN(S(=O)(=O)c2ccc3c(c2)N(C)C(=O)CC(=O)N3C)C1` (stereo not given), the “activity change, negative = cytotoxicity” value was inactive: 2.47%.
With `CC(C)c1cnc2c(c1SCC(=O)Nc1cccc([N+](=O)[O-])c1)c(=O)n(C)c(=O)n2C` the figure was inactive: 3.9%.
For `COCCCNc1ncnc2c1nnn2C`, the “activity change, negative = cytotoxicity” value was inactive: -10.6%.
For `CCn1c(SCC(=O)Nc2ccc(C)c(C)c2)nnc1-c1nonc1NC(C)=O`, the “activity change, negative = cytotoxicity” value was inactive: -0.215%.
With `CCCCC(CC)Cn1c(Oc2ccccc2)nc2c1c(=O)n(C)c(=O)n2C` (stereo not given), the “activity change, negative = cytotoxicity” value is inactive: 3.46%.
On to `Cc1ccc(Cl)cc1N1CCN(S(=O)(=O)c2ccc3c(c2)CC(=O)N3C)CC1`, for which the “activity change, negative = cytotoxicity” value was inactive: -1.1%.
Under `CCOc1ccc(-n2c(=O)c3sc4ccccc4c3n(Cc3ccc(F)cc3)c2=O)cc1` stands inactive: -3.66%.
Under `Cc1ccc(NC(=O)c2ccc(CN3CC(=O)N4CCCCC4C3=O)cc2)cc1C` (stereo not given) stands inactive: -6.51%; under `CCc1ccccc1NC(=O)C(=O)NCCc1sc(-c2cccc(C)c2)nc1C`, inactive: 1.29%.
In the case of `COc1ccc(OC)c(-n2cnc3cc(C(=O)NCCc4ccccc4)ccc32)c1`, the “activity change, negative = cytotoxicity” value was inactive: 4.73%.
Turning to `CCOc1ccccc1N(CC)C(=O)c1cc2c(=O)n(CC)c3ccccc3c2s1`, the “activity change, negative = cytotoxicity” value was inactive: 10.7%.
In the case of `CC1=C(C(=O)Nc2ccc(C)cc2C)C(c2ccc[nH]2)n2ncnc2N1` (stereo not given), the “activity change, negative = cytotoxicity” value was inactive: 0.769%.
On to `CSc1nnc2c(n1)OC(c1cccc(O)c1Cl)Nc1ccccc1-2` (stereo not given), for which the “activity change, negative = cytotoxicity” value was inactive: -1.23%.
In the case of `N#Cc1cc2c(=O)n3ccccc3nc2n(-c2nnc(SCc3ccccc3F)s2)c1=O`, the “activity change, negative = cytotoxicity” value was inactive: 21.3%.
With `Cc1ccc(OCC(=O)Nc2ccccc2C(=O)OCc2cc(=O)n3c(C)csc3n2)cc1` the figure was inactive: -8.98%; with `CC(C)OC(=O)c1c(NC(=O)c2cc3nc(-c4ccccc4)cc(C(F)(F)F)n3n2)sc2c1CCCC2`, inactive: -2.03%; with `Cc1ccc(-c2nnc3ccccc3c2C(=O)Nc2cccc(C(F)(F)F)c2)cc1`, inactive: 6.67%.
With `Cc1cc(C)cc(NS(=O)(=O)c2ccc3[nH]cc(C(=O)NCc4ccco4)c(=O)c3c2)c1`, the “activity change, negative = cytotoxicity” value is inactive: -24.4%.
As for `O=C(/C=C/c1ccccc1)Nc1nc(-c2cccs2)ns1`, the “activity change, negative = cytotoxicity” value was inactive: -11.6%.
Turning to `CC(=O)c1ccc(NC(=O)CN2C(=O)CCc3cc(S(=O)(=O)N4CCC(C)CC4)ccc32)cc1`, the “activity change, negative = cytotoxicity” value is inactive: 16%.
Consider `COc1cccc(NC(=O)CCc2nnc3n(CC(C)C)c(=O)c4ccccc4n23)c1`, for which the “activity change, negative = cytotoxicity” value is inactive: 24.6%.
Regarding `N#C/C(=C\c1ccccc1F)c1nc2ccccc2c(=O)[nH]1`, the “activity change, negative = cytotoxicity” value is inactive: -2.64%.
Regarding `CCC(O)c1nc2ccccc2n1CCOc1cc(C)cc(C)c1` (stereo not given), the “activity change, negative = cytotoxicity” value was inactive: -27.9%.
With `O=C(Nc1ccccc1F)c1oc2ccccc2c1NC(=O)C12CC3CC(CC(C3)C1)C2`, the “activity change, negative = cytotoxicity” value was inactive: 13.6%.
Turning to `O=C(Nc1ccc(Cl)c(C(F)(F)F)c1)c1cc2nc(-c3ccc4c(c3)OCO4)cc(C(F)(F)F)n2n1`, the “activity change, negative = cytotoxicity” value was inactive: 16.9%.
With `COc1cc(NC(=O)C2CCN(c3nnc(C)c4c(C)n(-c5ccccc5)nc34)CC2)cc(OC)c1` the figure was inactive: -10.4%; with `CCN(C(=O)CSc1nc2ccccc2n1Cc1ccccc1C#N)c1ccccc1`, inactive: 3.1%; with `Cc1ccc(-c2nc(S(=O)(=O)c3ccc(C)cc3)c(SCC(=O)c3ccccc3)o2)cc1`, inactive: -14%.
As to `Cc1cccc(C)c1NC(=O)Cn1c(=O)n(Cc2ccccc2Cl)c(=O)c2cccnc21`, the “activity change, negative = cytotoxicity” value was inactive: 7.53%.
For `COc1ccc(-n2nc(C(=O)Nc3ccc(C)cn3)c3c4ccccc4n(C)c3c2=O)cc1Cl`, the “activity change, negative = cytotoxicity” value is inactive: 22.4%.
`CCOC(=O)c1ccc(NC(=O)CSc2nnc(-c3ccncc3)n2-c2ccccc2)cc1`: the “activity change, negative = cytotoxicity” value is inactive: 6.53%.
As to `CCOc1ccc(CNC(=O)c2cnc3c(C)cccn3c2=O)cc1`, the “activity change, negative = cytotoxicity” value was inactive: -0.594%.
Regarding `CCOC(=O)c1ccccc1NC(=O)c1cnn(-c2ccc(OC)cc2)c1C1CCN(C(=O)OC(C)(C)C)CC1`, the “activity change, negative = cytotoxicity” value is inactive: 14.4%.
Consider `Cc1ccc2c(c1)c(=O)c1ccccc1n2CCCC(=O)Nc1ccc(Cl)cc1C`, for which the “activity change, negative = cytotoxicity” value is inactive: 20.4%.
With `O=C(NCc1nc2ccccc2n1Cc1ccccc1Cl)c1ccccc1`, the “activity change, negative = cytotoxicity” value was inactive: -0.788%.
With `Cc1ccc(NC(=O)CCCn2c(=O)c3cccn3c3ccccc32)cc1Cl`, the “activity change, negative = cytotoxicity” value is inactive: 9.36%.
For the compound `COc1ccc(-c2nn(-c3ccc(F)cc3)c3c2cnc2ccc(F)cc23)cc1OC`, the “activity change, negative = cytotoxicity” value was inactive: -11.3%.
For the compound `O=C1CN(C(=O)COc2ccccc2)C(c2ccc(F)cc2)c2cc(Br)ccc2N1` (stereo not given), the “activity change, negative = cytotoxicity” value is inactive: -28.7%.
For `COC(=O)c1cc2sc(Cl)cc2n1CC(=O)Nc1cc(OC)cc(OC)c1`, the “activity change, negative = cytotoxicity” value was inactive: -4.04%.
Regarding `COc1ccc(OCC(=O)Nc2ccc(Cl)c(-c3nc4ncccc4o3)c2)cc1`, the “activity change, negative = cytotoxicity” value is inactive: 3.78%.
For the compound `CCN(CCCNC(=O)c1cc(Nc2ccc(OC)cc2)nc2ccccc12)c1cccc(C)c1`, the “activity change, negative = cytotoxicity” value is inactive: 9.4%.
Under `COc1cccc(CNC(=O)c2ccc3c(c2)N(Cc2ccc(F)cc2Cl)C(=O)c2ccccc2S3)c1` stands inactive: 1.52%; under `Cc1ccccc1CN1C(=O)c2ccccc2Sc2ccc(C(=O)NCc3ccccc3)cc21`, inactive: -0.347%.
With `Cc1ccc(Cl)cc1NC(=O)Nc1cn(CC(C)C)c(=O)c2ccccc12` the figure was inactive: -4.87%; with `O=C(Nc1ccccc1F)c1nc(SCc2ccccc2F)ncc1Cl`, inactive: -1.58%.
With `CCOc1ccc(CCNC(=O)Cn2ccc3cc(S(=O)(=O)N4CCCCC4)ccc32)cc1` the figure was inactive: -22.3%; with `CN(Cc1ccccc1)c1ccc(-c2nc(-c3ccccc3)no2)cc1[N+](=O)[O-]`, inactive: 7.24%; with `C=Cc1ccc(Cn2c(C)c(CNCc3ccc(SC)cc3)c(C(=O)O)c2C)cc1`, inactive: 8.54%.
For `CCc1cccc(NC(=O)c2cc3c(s2)-c2ccccc2OC3)c1`, the “activity change, negative = cytotoxicity” value was inactive: 17.7%.
Take `Cc1cc(C)c(NC(=O)C(=O)NCC(c2cccnc2)N2CCN(c3ccccc3F)CC2)c(C)c1` (stereo not given): the “activity change, negative = cytotoxicity” value is inactive: -10.6%.
Under `O=C(CN1C(=O)c2cccc3cccc1c23)Nc1cccc(F)c1` stands inactive: 19%.
Under `CC(=O)Nc1cccc(NC(=O)CSc2nccn2C2CCCC2)c1` stands inactive: -15.7%; under `CCC(Sc1ncc(S(=O)(=O)c2ccc(Cl)cc2)c(=O)[nH]1)C(=O)Nc1ccc(OC)cc1` (stereo not given), inactive: -9.76%; under `Cc1ccc2[nH]c(=O)c3cc(C(=O)N(CCCOC(C)C)Cc4ccco4)sc3c2c1`, inactive: -21.9%.
Turning to `COc1ccc(Cl)cc1NC(=O)CSc1nnc2[nH]c(=O)cc(-c3ccccc3)n12`, the “activity change, negative = cytotoxicity” value was inactive: 1.98%.
With `COC(=O)c1ccc2c(=O)n3nc(Nc4cc(OC)ccc4OC)sc3nc2c1` the figure was inactive: 0.371%.
Take `Cc1ccccc1NC(=O)CSC1=Nc2ccccc2C2=NC(Cc3ccccc3)C(=O)N12` (stereo not given): the “activity change, negative = cytotoxicity” value is inactive: -22.2%.
As for `Cc1ccc(OCc2nc(C#N)c(NCCc3ccccc3)o2)cc1`, the “activity change, negative = cytotoxicity” value is inactive: 2%.
